This is an account of results in PMC6576747.

These are yes or no findings as the source states them, for the method shown. Some binding calls cover weakened binding; strength is not graded here. Sequences can lack the tags named with a protein.

In assay [1] the target is T1, Swi6 (yeast two-hybrid fusion) (S. pombe) (UniProt P40381).
T1 sequence: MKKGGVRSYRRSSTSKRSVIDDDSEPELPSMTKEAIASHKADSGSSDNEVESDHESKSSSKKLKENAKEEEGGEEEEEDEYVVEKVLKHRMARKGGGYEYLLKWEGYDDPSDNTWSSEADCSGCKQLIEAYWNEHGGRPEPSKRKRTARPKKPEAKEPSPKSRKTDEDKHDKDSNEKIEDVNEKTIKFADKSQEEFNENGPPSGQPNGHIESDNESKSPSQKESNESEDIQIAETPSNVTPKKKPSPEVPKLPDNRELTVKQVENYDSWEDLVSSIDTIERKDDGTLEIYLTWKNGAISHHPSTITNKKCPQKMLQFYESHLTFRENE
Description: two-hybrid; Matchmaker GAL4 Two-Hybrid System 3, host AH109, HIS3 reporter, serial dilution on -TLH, 15 mM 3-AT; both orientations (bait-prey exchange).

Assay [2] deals with T2, Swi6 (yeast two-hybrid fusion) (S. pombe), P40381.
T2 chain: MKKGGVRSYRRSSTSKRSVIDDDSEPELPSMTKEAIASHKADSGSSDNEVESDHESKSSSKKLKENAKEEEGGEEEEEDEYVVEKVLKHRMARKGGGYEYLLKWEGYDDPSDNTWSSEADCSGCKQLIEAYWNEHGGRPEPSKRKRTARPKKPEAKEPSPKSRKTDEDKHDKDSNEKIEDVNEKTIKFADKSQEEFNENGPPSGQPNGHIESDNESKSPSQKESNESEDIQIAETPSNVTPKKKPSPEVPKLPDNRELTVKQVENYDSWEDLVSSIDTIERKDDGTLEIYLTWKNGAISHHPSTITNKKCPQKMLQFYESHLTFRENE
The assay is described as above. To be noted: remark: other sources report otherwise.

The target of assay [3] is T1, Swi6 (yeast two-hybrid fusion) (S. pombe). Description: two-hybrid; Matchmaker GAL4 Two-Hybrid System 3, host AH109, HIS3 reporter, serial dilution on -TLH; halves of Epe1 against Swi6; which was bait is not told.
For assay [4], the target named is T3, Epe1 (yeast two-hybrid fusion) (S. pombe) (UniProt O94603).
T3 sequence: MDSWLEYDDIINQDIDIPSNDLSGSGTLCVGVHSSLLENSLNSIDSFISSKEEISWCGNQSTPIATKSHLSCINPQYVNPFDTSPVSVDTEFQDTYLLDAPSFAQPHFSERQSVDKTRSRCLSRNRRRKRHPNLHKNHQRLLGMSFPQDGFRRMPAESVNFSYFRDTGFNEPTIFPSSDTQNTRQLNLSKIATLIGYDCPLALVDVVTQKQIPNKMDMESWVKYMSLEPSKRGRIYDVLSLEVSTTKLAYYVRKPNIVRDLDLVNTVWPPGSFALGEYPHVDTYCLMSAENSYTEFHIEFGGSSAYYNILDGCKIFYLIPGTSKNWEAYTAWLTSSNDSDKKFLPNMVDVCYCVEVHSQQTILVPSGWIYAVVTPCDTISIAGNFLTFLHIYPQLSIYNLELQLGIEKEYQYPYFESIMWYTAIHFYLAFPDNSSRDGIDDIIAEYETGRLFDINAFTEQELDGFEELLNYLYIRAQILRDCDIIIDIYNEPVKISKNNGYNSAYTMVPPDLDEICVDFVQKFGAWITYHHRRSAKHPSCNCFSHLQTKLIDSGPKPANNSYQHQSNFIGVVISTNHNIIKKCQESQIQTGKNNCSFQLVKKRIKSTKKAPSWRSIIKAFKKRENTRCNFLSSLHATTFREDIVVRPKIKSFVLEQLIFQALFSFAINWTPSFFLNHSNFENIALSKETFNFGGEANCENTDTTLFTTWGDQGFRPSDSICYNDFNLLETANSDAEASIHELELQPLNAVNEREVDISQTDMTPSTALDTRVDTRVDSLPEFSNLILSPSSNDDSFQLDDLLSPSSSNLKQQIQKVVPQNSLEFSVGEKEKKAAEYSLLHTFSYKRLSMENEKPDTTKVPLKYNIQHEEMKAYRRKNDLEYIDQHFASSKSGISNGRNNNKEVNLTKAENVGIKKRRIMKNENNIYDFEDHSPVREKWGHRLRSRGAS
Description: two-hybrid; Matchmaker GAL4 Two-Hybrid System 3, host AH109, HIS3 reporter, serial dilution on -TLH, 15 mM 3-AT; both orientations (bait-prey exchange).

Assay [5] addresses T4, Epe1H297A (yeast two-hybrid fusion) (S. pombe), O94603.
T4 chain: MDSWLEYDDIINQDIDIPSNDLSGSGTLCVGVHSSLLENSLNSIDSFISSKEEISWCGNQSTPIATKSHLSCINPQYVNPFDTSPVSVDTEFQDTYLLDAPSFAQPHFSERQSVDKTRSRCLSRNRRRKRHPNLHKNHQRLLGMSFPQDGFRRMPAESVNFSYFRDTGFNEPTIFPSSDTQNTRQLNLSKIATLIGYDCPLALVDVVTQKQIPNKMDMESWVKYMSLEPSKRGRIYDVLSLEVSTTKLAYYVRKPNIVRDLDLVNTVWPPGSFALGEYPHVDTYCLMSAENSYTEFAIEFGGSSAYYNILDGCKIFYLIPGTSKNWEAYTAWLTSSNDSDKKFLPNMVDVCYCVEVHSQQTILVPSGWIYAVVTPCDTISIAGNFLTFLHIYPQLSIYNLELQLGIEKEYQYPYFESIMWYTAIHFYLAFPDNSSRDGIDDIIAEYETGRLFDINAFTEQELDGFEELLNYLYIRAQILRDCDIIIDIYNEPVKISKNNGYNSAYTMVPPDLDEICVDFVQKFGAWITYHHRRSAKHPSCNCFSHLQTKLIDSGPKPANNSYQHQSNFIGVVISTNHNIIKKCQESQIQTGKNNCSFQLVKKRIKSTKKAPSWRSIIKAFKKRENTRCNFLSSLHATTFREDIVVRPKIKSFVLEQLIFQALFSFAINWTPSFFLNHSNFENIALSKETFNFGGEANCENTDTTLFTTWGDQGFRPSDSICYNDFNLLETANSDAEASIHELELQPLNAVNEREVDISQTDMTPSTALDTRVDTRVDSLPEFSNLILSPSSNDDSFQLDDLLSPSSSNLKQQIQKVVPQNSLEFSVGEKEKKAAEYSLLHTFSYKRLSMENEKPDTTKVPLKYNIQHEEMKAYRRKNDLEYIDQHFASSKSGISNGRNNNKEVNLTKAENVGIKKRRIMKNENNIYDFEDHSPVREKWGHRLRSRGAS
Described as above. To be noted: remark: other sources report otherwise.

B1: Epe1 (yeast two-hybrid fusion) (protein, UniProt O94603 1-948)
chain: MDSWLEYDDIINQDIDIPSNDLSGSGTLCVGVHSSLLENSLNSIDSFISSKEEISWCGNQSTPIATKSHLSCINPQYVNPFDTSPVSVDTEFQDTYLLDAPSFAQPHFSERQSVDKTRSRCLSRNRRRKRHPNLHKNHQRLLGMSFPQDGFRRMPAESVNFSYFRDTGFNEPTIFPSSDTQNTRQLNLSKIATLIGYDCPLALVDVVTQKQIPNKMDMESWVKYMSLEPSKRGRIYDVLSLEVSTTKLAYYVRKPNIVRDLDLVNTVWPPGSFALGEYPHVDTYCLMSAENSYTEFHIEFGGSSAYYNILDGCKIFYLIPGTSKNWEAYTAWLTSSNDSDKKFLPNMVDVCYCVEVHSQQTILVPSGWIYAVVTPCDTISIAGNFLTFLHIYPQLSIYNLELQLGIEKEYQYPYFESIMWYTAIHFYLAFPDNSSRDGIDDIIAEYETGRLFDINAFTEQELDGFEELLNYLYIRAQILRDCDIIIDIYNEPVKISKNNGYNSAYTMVPPDLDEICVDFVQKFGAWITYHHRRSAKHPSCNCFSHLQTKLIDSGPKPANNSYQHQSNFIGVVISTNHNIIKKCQESQIQTGKNNCSFQLVKKRIKSTKKAPSWRSIIKAFKKRENTRCNFLSSLHATTFREDIVVRPKIKSFVLEQLIFQALFSFAINWTPSFFLNHSNFENIALSKETFNFGGEANCENTDTTLFTTWGDQGFRPSDSICYNDFNLLETANSDAEASIHELELQPLNAVNEREVDISQTDMTPSTALDTRVDTRVDSLPEFSNLILSPSSNDDSFQLDDLLSPSSSNLKQQIQKVVPQNSLEFSVGEKEKKAAEYSLLHTFSYKRLSMENEKPDTTKVPLKYNIQHEEMKAYRRKNDLEYIDQHFASSKSGISNGRNNNKEVNLTKAENVGIKKRRIMKNENNIYDFEDHSPVREKWGHRLRSRGAS
For the molecule B1, the binding entry in assay [1] is listed as “binds”.

B2: Epe1H297A (yeast two-hybrid fusion), O94603 1-948 (protein)
chain: MDSWLEYDDIINQDIDIPSNDLSGSGTLCVGVHSSLLENSLNSIDSFISSKEEISWCGNQSTPIATKSHLSCINPQYVNPFDTSPVSVDTEFQDTYLLDAPSFAQPHFSERQSVDKTRSRCLSRNRRRKRHPNLHKNHQRLLGMSFPQDGFRRMPAESVNFSYFRDTGFNEPTIFPSSDTQNTRQLNLSKIATLIGYDCPLALVDVVTQKQIPNKMDMESWVKYMSLEPSKRGRIYDVLSLEVSTTKLAYYVRKPNIVRDLDLVNTVWPPGSFALGEYPHVDTYCLMSAENSYTEFAIEFGGSSAYYNILDGCKIFYLIPGTSKNWEAYTAWLTSSNDSDKKFLPNMVDVCYCVEVHSQQTILVPSGWIYAVVTPCDTISIAGNFLTFLHIYPQLSIYNLELQLGIEKEYQYPYFESIMWYTAIHFYLAFPDNSSRDGIDDIIAEYETGRLFDINAFTEQELDGFEELLNYLYIRAQILRDCDIIIDIYNEPVKISKNNGYNSAYTMVPPDLDEICVDFVQKFGAWITYHHRRSAKHPSCNCFSHLQTKLIDSGPKPANNSYQHQSNFIGVVISTNHNIIKKCQESQIQTGKNNCSFQLVKKRIKSTKKAPSWRSIIKAFKKRENTRCNFLSSLHATTFREDIVVRPKIKSFVLEQLIFQALFSFAINWTPSFFLNHSNFENIALSKETFNFGGEANCENTDTTLFTTWGDQGFRPSDSICYNDFNLLETANSDAEASIHELELQPLNAVNEREVDISQTDMTPSTALDTRVDTRVDSLPEFSNLILSPSSNDDSFQLDDLLSPSSSNLKQQIQKVVPQNSLEFSVGEKEKKAAEYSLLHTFSYKRLSMENEKPDTTKVPLKYNIQHEEMKAYRRKNDLEYIDQHFASSKSGISNGRNNNKEVNLTKAENVGIKKRRIMKNENNIYDFEDHSPVREKWGHRLRSRGAS
For B2, in assay [2], the binding entry is recorded as “binds”.

B3: C-terminal half of Epe1 (487–948 amino acids region) (domain or fragment, UniProt O94603 487-948)
chain: DIYNEPVKISKNNGYNSAYTMVPPDLDEICVDFVQKFGAWITYHHRRSAKHPSCNCFSHLQTKLIDSGPKPANNSYQHQSNFIGVVISTNHNIIKKCQESQIQTGKNNCSFQLVKKRIKSTKKAPSWRSIIKAFKKRENTRCNFLSSLHATTFREDIVVRPKIKSFVLEQLIFQALFSFAINWTPSFFLNHSNFENIALSKETFNFGGEANCENTDTTLFTTWGDQGFRPSDSICYNDFNLLETANSDAEASIHELELQPLNAVNEREVDISQTDMTPSTALDTRVDTRVDSLPEFSNLILSPSSNDDSFQLDDLLSPSSSNLKQQIQKVVPQNSLEFSVGEKEKKAAEYSLLHTFSYKRLSMENEKPDTTKVPLKYNIQHEEMKAYRRKNDLEYIDQHFASSKSGISNGRNNNKEVNLTKAENVGIKKRRIMKNENNIYDFEDHSPVREKWGHRLRSRGAS
Consider B3, for which the binding result in assay [3] is on record as “binds”.

B4: N-terminal half of Epe1 (1–486) (domain or fragment, UniProt O94603 1-486)
chain: MDSWLEYDDIINQDIDIPSNDLSGSGTLCVGVHSSLLENSLNSIDSFISSKEEISWCGNQSTPIATKSHLSCINPQYVNPFDTSPVSVDTEFQDTYLLDAPSFAQPHFSERQSVDKTRSRCLSRNRRRKRHPNLHKNHQRLLGMSFPQDGFRRMPAESVNFSYFRDTGFNEPTIFPSSDTQNTRQLNLSKIATLIGYDCPLALVDVVTQKQIPNKMDMESWVKYMSLEPSKRGRIYDVLSLEVSTTKLAYYVRKPNIVRDLDLVNTVWPPGSFALGEYPHVDTYCLMSAENSYTEFHIEFGGSSAYYNILDGCKIFYLIPGTSKNWEAYTAWLTSSNDSDKKFLPNMVDVCYCVEVHSQQTILVPSGWIYAVVTPCDTISIAGNFLTFLHIYPQLSIYNLELQLGIEKEYQYPYFESIMWYTAIHFYLAFPDNSSRDGIDDIIAEYETGRLFDINAFTEQELDGFEELLNYLYIRAQILRDCDIII
Regarding B4, in assay [3], the binding result is recorded as “no binding”.

B5: Swi6 (yeast two-hybrid fusion) (protein, UniProt P40381 1-328)
chain: MKKGGVRSYRRSSTSKRSVIDDDSEPELPSMTKEAIASHKADSGSSDNEVESDHESKSSSKKLKENAKEEEGGEEEEEDEYVVEKVLKHRMARKGGGYEYLLKWEGYDDPSDNTWSSEADCSGCKQLIEAYWNEHGGRPEPSKRKRTARPKKPEAKEPSPKSRKTDEDKHDKDSNEKIEDVNEKTIKFADKSQEEFNENGPPSGQPNGHIESDNESKSPSQKESNESEDIQIAETPSNVTPKKKPSPEVPKLPDNRELTVKQVENYDSWEDLVSSIDTIERKDDGTLEIYLTWKNGAISHHPSTITNKKCPQKMLQFYESHLTFRENE
As for B5, the binding result in assay [4] is “binds”.

B6: Swi6 (yeast two-hybrid fusion), P40381 1-328 (protein)
chain: MKKGGVRSYRRSSTSKRSVIDDDSEPELPSMTKEAIASHKADSGSSDNEVESDHESKSSSKKLKENAKEEEGGEEEEEDEYVVEKVLKHRMARKGGGYEYLLKWEGYDDPSDNTWSSEADCSGCKQLIEAYWNEHGGRPEPSKRKRTARPKKPEAKEPSPKSRKTDEDKHDKDSNEKIEDVNEKTIKFADKSQEEFNENGPPSGQPNGHIESDNESKSPSQKESNESEDIQIAETPSNVTPKKKPSPEVPKLPDNRELTVKQVENYDSWEDLVSSIDTIERKDDGTLEIYLTWKNGAISHHPSTITNKKCPQKMLQFYESHLTFRENE
Take B6: the binding result in assay [5] is “binds”.
